Values belong to the binder of their own block, whether it stands above or below them.
Assays:
[1] = molecular target: T1, PD-L1 (human, UniProt Q9NZQ7 19-134); assay: ELISA; competitive ELISA: inhibition of PD-1/PD-L1 by rU1 snRNPA or variants; curve fitting with GraphPad Prism 8.0; done in double; details in the supplementary materials (not shown); conditions: both partners purified
T1 construct: PD-L1, human; In the SERS assay PD-L1 was carried on MNs (MNs@PD-L1); Source and limits of the protein may be in the supplementary materials; also called MNs@PD-L1; hPD-L1

[2] = molecular target: T1, PD-L1; assay: ELISA; binding ELISA of rU1 snRNPA or variants on PD-L1; curve fitting with GraphPad Prism 8.0; done in double; details in the supplementary materials (not shown); conditions: both partners purified
T1 sequence (Q9NZQ7 19-134): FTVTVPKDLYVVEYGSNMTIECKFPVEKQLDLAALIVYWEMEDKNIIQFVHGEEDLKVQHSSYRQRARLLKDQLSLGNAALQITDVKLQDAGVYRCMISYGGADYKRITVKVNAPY

- IC50 [1]: 18.1 nM
- EC50 [2]: 55.2 nM
B1: recombinant full-length U1 small nuclear ribonucleoprotein A (natural protein)
chain: not shown
notes: U1 small nuclear ribonucleoprotein A, human; also called rU1 snRNPA; U1 snRNPA

- IC50 [1]: 14.3 nM
- EC50 [2]: 51.4 nM
B2: rU1 snRNPA variant A32D (natural protein)
chain: not shown
notes: U1 small nuclear ribonucleoprotein A, human, full-length, with the single-point mutation A32D; source: E. coli, expressed and purified in the same way as the wild type

Reference: publication PMC8666589 (Frontiers in Oncology, 2021)
